Assay results published in the supplement of paper PMC4166925.
± gives the standard deviation of the averaged measurements. The full ranking holds about 33,000 sequences; the median of “E-score (dimensionless, -0.5 to 0.5)” is about -0.046, and the highest 2% start at about 0.36. The list shows a part of the results.

The sequences below were run on T1, SpTbr T-box DNA-binding domain (GST fusion) (assay: PBM E-score of 8-mer (E-score (dimensionless, -0.5 to 0.5)); Tbr is Tbrain of the sea star Patiria miniata (Pm) or the sea urchin Strongylocentrotus purpuratus (Sp); higher = stronger binding preference; most listed sequences are background and not binding sites). Conditions: the construct has about 5 more residues each side.
T1 sequence: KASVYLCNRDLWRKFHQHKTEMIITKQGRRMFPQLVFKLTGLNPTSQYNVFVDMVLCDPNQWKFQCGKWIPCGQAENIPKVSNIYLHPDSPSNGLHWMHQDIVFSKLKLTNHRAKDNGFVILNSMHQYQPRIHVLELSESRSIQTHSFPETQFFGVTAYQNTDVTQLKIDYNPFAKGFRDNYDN
Method in brief: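 Primer extension turned Universal Agilent oligonucleotide arrays double-stranded. They were incubated with 200 nM protein in PBS (pH 7.5); the protein was a GST-fused Tbr T-box DNA-binding domain expressed in BL21 E. coli at 20 °C and purified on glutathione. Every ungapped 8-mer was scored from the scanned, quantified probe intensities, and the Universal PBM Analysis Suite gave each an enrichment E-score averaged over duplicate arrays.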

Compared with AGTCGAAG, ACCTCGCT is higher in “PBM E-score of 8-mer” value: -0.182 ± 0.042 for the first, 0.0573 ± 0.075 for the second.

First: GTTCGAAC
Second: CTTAAGGA
The “PBM E-score of 8-mer” value of the first is higher: -0.0456 ± 0.057 for the first, -0.233 ± 0.015 for the second.

Going from ATGCTCTC to ACGTGGCG, the “PBM E-score of 8-mer” value rises from -0.106 ± 0.061 to 0.172 ± 0.063.

First: TATATAGA
Second: AGGTGCGG
The “PBM E-score of 8-mer” value of the first is lower: 0.0105 ± 0.0057 for the first, 0.429 ± 0.025 for the second.

Going from GGTGCACA to ATCGAAAG, the “PBM E-score of 8-mer” value falls from 0.149 ± 0.055 to -0.156 ± 0.057.

First: AAACATTT
Second: AAGACAGA
The “PBM E-score of 8-mer” value of the first is lower: -0.245 ± 0.056 for the first, -0.113 ± 0.0064 for the second.

AGGCCGCG and CAAACTCG are within error of each other in “PBM E-score of 8-mer” value: -0.0663 ± 0.042 for the first, -0.0126 ± 0.039 for the second.

Going from AGTATGAG to CGTTAGAC, the “PBM E-score of 8-mer” value rises from -0.1691 ± 0.0014 to -0.00874 ± 0.0054.

Compared with ATTCGCAC, GATAGAGA is lower in “PBM E-score of 8-mer” value: 0.4705 ± 0.0024 for the first, -0.0162 ± 0.011 for the second.

First: ACCGGAAT
Second: GAACGGAA
The “PBM E-score of 8-mer” value of the first is lower: -0.166 ± 0.0071 for the first, -0.116 ± 0.005 for the second.

Going from CAAATGAG to AGCCCGTC, the “PBM E-score of 8-mer” value rises from -0.158 ± 0.037 to -0.0589 ± 0.022.

AAAACGAA and CGGATGCC are within error of each other in “PBM E-score of 8-mer” value: -0.137 ± 0.18 for the first, -0.171 ± 0.063 for the second.

Compared with AATATTGG, AATGGTTG is lower in “PBM E-score of 8-mer” value: 0.0593 ± 0.03 for the first, 0.00509 ± 0.024 for the second.

GCCACCCC and ACAGACGT are within error of each other in “PBM E-score of 8-mer” value: 0.181 ± 0.081 for the first, 0.126 ± 0.022 for the second.

Going from CACATATA to CATTGATA, the “PBM E-score of 8-mer” value falls from 0.225 ± 0.013 to -0.05604 ± 0.0005.

First: TGAAGTCA
Second: CCCTGGAC
The “PBM E-score of 8-mer” value of the first is higher: -0.147 ± 0.078 for the first, -0.304 ± 0.012 for the second.

GCCTATTA and CACGACAG are within error of each other in “PBM E-score of 8-mer” value: -0.0188 ± 0.076 for the first, 0.0547 ± 0.024 for the second.

Going from CATGAACA to AATTCTCC, the “PBM E-score of 8-mer” value falls from 0.0999 ± 0.012 to -0.177 ± 0.044.

ACCACTAA and ACGACAAT are within error of each other in “PBM E-score of 8-mer” value: 0.0893 ± 0.044 for the first, 0.13 ± 0.0098 for the second.

Compared with AAGGTGGT, CGAACAAG is lower in “PBM E-score of 8-mer” value: 0.247 ± 0.033 for the first, -0.176 ± 0.0081 for the second.

ATTAGAGA and GCATGATA are within error of each other in “PBM E-score of 8-mer” value: -0.263 ± 0.018 for the first, -0.204 ± 0.044 for the second.

Compared with CCAGTCAG, AGTGTGTC is higher in “PBM E-score of 8-mer” value: -0.219 ± 0.057 for the first, 0.234 ± 0.06 for the second.

Compared with ACACCCGT, GTCCGAAA is lower in “PBM E-score of 8-mer” value: 0.344 ± 0.017 for the first, -0.0192 ± 0.0055 for the second.

Going from CGCAAGGA to GGGCTATA, the “PBM E-score of 8-mer” value falls from -0.051 ± 0.018 to -0.219 ± 0.015.

First: CGCGGAGC
Second: CATAGTGC
The “PBM E-score of 8-mer” value of the first is lower: 0.00248 ± 0.026 for the first, 0.0466 ± 0.013 for the second.

Compared with GGTTTGAA, AAGTTAGC is higher in “PBM E-score of 8-mer” value: -0.128 ± 0.026 for the first, 0.118 ± 0.051 for the second.

Compared with ATATTCCG, TGTGCACA is higher in “PBM E-score of 8-mer” value: -0.0864 ± 0.045 for the first, 0.182 ± 0.021 for the second.

Going from CAACGTAG to ATACGACG, the “PBM E-score of 8-mer” value rises from -0.206 ± 0.026 to -0.035 ± 0.047.

GCAGACGA and CCGTTAGA are within error of each other in “PBM E-score of 8-mer” value: -0.0166 ± 0.058 for the first, 0.0367 ± 0.017 for the second.

First: GCGGCACC
Second: CGCTCTTA
The “PBM E-score of 8-mer” value of the first is higher: 0.301 ± 0.058 for the first, -0.254 ± 0.016 for the second.

CTGACCCA and CCCGTTGC are within error of each other in “PBM E-score of 8-mer” value: -0.181 ± 0.057 for the first, -0.0897 ± 0.17 for the second.

First: GCTGCGAC
Second: GCAAGTTA
The “PBM E-score of 8-mer” value of the first is higher: 0.137 ± 0.059 for the first, 0.0663 ± 0.0025 for the second.

First: ACGCGCAG
Second: GAAATCGC
The “PBM E-score of 8-mer” value of the first is lower: -0.0458 ± 0.074 for the first, 0.242 ± 0.0076 for the second.

First: AACTGTTC
Second: CCCCCTAG
The “PBM E-score of 8-mer” value of the first is higher: 0.0151 ± 0.0031 for the first, -0.273 ± 0.062 for the second.

Compared with AATCCAGC, GATACCCC is lower in “PBM E-score of 8-mer” value: 0.0114 ± 0.0064 for the first, -0.273 ± 0.041 for the second.

ACTCATCT and CAATTCGG are within error of each other in “PBM E-score of 8-mer” value: -0.115 ± 0.019 for the first, -0.165 ± 0.061 for the second.

Going from CTGGAGAA to AGCCCCAA, the “PBM E-score of 8-mer” value rises from -0.0875 ± 0.047 to 0.0539 ± 0.0008.

Going from CCACACTA to CCTATGTC, the “PBM E-score of 8-mer” value falls from 0.279 ± 0.029 to -0.0414 ± 0.13.

CTGAATAC and TCATGCAA are within error of each other in “PBM E-score of 8-mer” value: -0.137 ± 0.046 for the first, -0.175 ± 0.02 for the second.

Going from CAGAAAAG to AAATCTCC, the “PBM E-score of 8-mer” value falls from -0.0037 ± 0.07 to -0.259 ± 0.018.

Going from AAGTCGAT to CAGATAGG, the “PBM E-score of 8-mer” value falls from 0.126 ± 0.046 to 0.0129 ± 0.0034.

First: AGCGATAC
Second: AACTCACT
The “PBM E-score of 8-mer” value of the first is higher: 0.0863 ± 0.017 for the first, 0.0115 ± 0.0061 for the second.

CGGCTAGC and TCCCCGCA are within error of each other in “PBM E-score of 8-mer” value: 0.1221 ± 0.0011 for the first, 0.0619 ± 0.076 for the second.

GGCCAAAC and AGTCTTGG are within error of each other in “PBM E-score of 8-mer” value: -0.12 ± 0.07 for the first, -0.101 ± 0.011 for the second.

First: CATTGGCA
Second: CACATCGA
The “PBM E-score of 8-mer” value of the first is higher: 0.206 ± 0.018 for the first, 0.151 ± 0.036 for the second.

First: AAGAACAT
Second: CAAAGTTG
The “PBM E-score of 8-mer” value of the first is lower: -0.0743 ± 0.032 for the first, 0.114 ± 0.052 for the second.

Going from AAGGGGAT to ATATTCGC, the “PBM E-score of 8-mer” value rises from -0.0523 ± 0.031 to 0.16 ± 0.029.

GTCCGAGA and GCGAGCCC are within error of each other in “PBM E-score of 8-mer” value: -0.149 ± 0.026 for the first, -0.0731 ± 0.098 for the second.

Going from AATAGTCG to CGGTAACA, the “PBM E-score of 8-mer” value rises from -0.0011 ± 0.0085 to 0.239 ± 0.051.

Compared with CCTAGATA, GCCCGTGA is higher in “PBM E-score of 8-mer” value: -0.285 ± 0.047 for the first, -0.0135 ± 0.069 for the second.

First: CTGTAGGA
Second: AAGAGGCG
The “PBM E-score of 8-mer” value of the first is lower: -0.214 ± 0.0083 for the first, 0.187 ± 0.027 for the second.

Going from AGAGCCAC to AAGCACTT, the “PBM E-score of 8-mer” value rises from -0.09 ± 0.049 to 0.0747 ± 0.093.

Going from GCCTAGCC to CGTGACCA, the “PBM E-score of 8-mer” value rises from -0.167 ± 0.016 to 0.263 ± 0.048.

First: AGCTCATA
Second: ACACAACT
The “PBM E-score of 8-mer” value of the first is lower: -0.0758 ± 0.02 for the first, 0.202 ± 0.0066 for the second.

Going from AGCATTGA to TTCGTAAA, the “PBM E-score of 8-mer” value rises from -0.182 ± 0.0027 to -0.099 ± 0.049.
